According to the supplement of paper PMC9334596:
Where “and” joins values, the source holds several entries; their conditions need not be identical. Identical values can stand only once. Whole data set: some 5,300 compounds, median “PER2::LUC luminescence relative to vehicle control” near 0.96, cut for the highest 2% near 1.3. This is one part of the list.

Tested on: mPer2Luc MEF
Experiment: PER2::LUC luminescence relative to vehicle control (fold of vehicle); higher = higher PER2::LUC reporter signal
Conditions: 10 µM
Summary of the method: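 Compounds from commercial libraries were added at 10 μM to 384-well plates seeded 48 h earlier with ~3000 mPer2Luc mouse embryonic fibroblasts per well. The cells were kept in DMEM with 10% FBS at 37 °C and 5% CO2. Luminescence was read with ONE-Glo 24 h and 30 h after treatment, then an alamarBlue viability assay was run. Values are PER2::LUC luminescence relative to vehicle control, as fold change.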

Compound	PER2::LUC luminescence (time after treatment 24 h)	PER2::LUC luminescence (time after treatment 30 h)
c1ccc2[nH]ncc2c1	0.963	0.985
CNC(=N)NCCC[C@H](N)C(=O)O	0.86	1.01
CNC(=O)c1ccc(C)c(-n2c(C)cc(OCc3ccc(F)cc3F)c(Br)c2=O)c1	0.809	0.921
COCCOc1ccc(N2CCN(CCn3ncc4c3nc(N)n3nc(-c5ccco5)nc43)CC2)cc1	1.05	0.963
Cc1cc(-c2ccc(/N=N/c3ccc4c(S(=O)(=O)O)cc(S(=O)(=O)O)c(N)c4c3O)c(C)c2)ccc1/N=N/c1ccc2c(S(=O)(=O)O)cc(S(=O)(=O)O)c(N)c2c1O	0.992	0.81
C=C1CC[C@H]2C(=C)CC[C@H]3C(=C)C(=O)O[C@@H]3[C@@H]12	0.979	0.959
CC(O)c1ccc(S(=O)(=O)NC(=O)NC2CCCCC2)cc1 (centres undefined)	0.967	1.12
COCCc1ccc(OCC(O)CNC(C)C)cc1 (racemic)	1.22	0.971
Cc1cc(O)c2c(O)c3c(O)cccc3cc2c1	0.944	0.967
C=CCSCC1Nc2cc(Cl)c(S(N)(=O)=O)cc2S(=O)(=O)N1 (centres undefined)	0.944	0.901
Cc1ccc(-n2nc(C(C)(C)C)cc2NC(=O)Nc2ccc(OCCN3CCOCC3)c3ccccc23)cc1	0.888 and 1.25	1.11 and 0.954
CCCCCCCCCCCCCC[C@@H](O)[C@@H](O)[C@@H](CO)NC(C)=O	1.07	1.04
NC(=O)c1cccc(N)c1	1.1	1.01
CCCCC[C@H](O)/C=C/C=C\CCCCCCCC(=O)O	0.991	0.9
NC(=O)NS(=O)(=O)c1ccc(N)cc1	1.1	1.01 and 0.964
O=C1CCCC(=O)C1C(=O)c1ccc(C(F)(F)F)cc1[N+](=O)[O-]	1.15	1.06
CC(=O)N(CC(O)CN(C(C)=O)c1c(I)c(C(=O)NCC(O)CO)c(I)c(C(=O)NCC(O)CO)c1I)c1c(I)c(C(=O)NCC(O)CO)c(I)c(C(=O)NCC(O)CO)c1I (centres undefined)	0.831	0.729
CN(C)Cc1ccc(S(=O)(=O)n2ccc(/C=C/C(=O)NO)c2)cc1	0.248 and 0.207	0.354 and 0.366
Nc1ncnc2n[nH]c(Nc3ccc(F)cc3)c12	0.948	0.946
CC[C@H](C)C[C@H](C)CCCCCCCCC(=O)N[C@H]1C[C@@H](O)[C@@H](NCCN)NC(=O)[C@@H]2[C@@H](O)CCN2C(=O)[C@H]([C@H](O)CCN)NC(=O)[C@H]([C@H](O)[C@@H](O)c2ccc(O)cc2)NC(=O)[C@@H]2C[C@@H](O)CN2C(=O)[C@H]([C@@H](C)O)NC1=O	1.06 and 0.951	1.08 and 1
c1ccc(CN(CC2=NCCN2)c2ccccc2)cc1	0.832 and 0.642	0.853 and 0.913
c1nc(CC2CCNCC2)c[nH]1	0.32	0.4

Compound	PER2::LUC luminescence (time after treatment 24 h)	PER2::LUC luminescence (time after treatment 30 h)
O=C(O)C1=CCCN(CCON=C(c2ccccc2)c2ccccc2)C1	0.849	0.974
CN(C)CC/C=C1/c2ccccc2COc2ccc(CC(=O)O)cc21	1.08	0.965
CCOc1ccc(Oc2ccc(OCc3cc(F)ccc3F)cc2)c(N)c1	1.03	0.887
COc1cc(/C=C/C(=O)N2CCCCCCC2)cc(OC)c1OC	0.996	1.1
C=CC(C)(C)c1cc(/C=C\C(=O)c2ccc(O)cc2)c(OC)cc1O	0.553	0.862
Nc1cc(F)ccc1NC(=O)/C=C/c1cnn(C/C=C/c2ccccc2)c1	0.683	0.649
Nc1nc(NC2CC2)c2ncn([C@H]3C=C[C@@H](CO)C3)c2n1	1.23 and 1.48	1.32 and 1.75
COc1cc(OC)c2c(=O)c(-c3ccc4c(c3)OCO4)coc2c1	1.07	1.31
O=C(COc1ccc(Cl)cc1)N1CCN(Cc2ccc3c(c2)OCO3)CC1	0.918 and 0.872	0.866 and 0.844
N[C@@H](Cc1ccc(O)cc1)C(=O)O	0.927	0.952
O=c1c(O)cc([C@H]2Oc3cc(O)cc(O)c3C[C@H]2O)cc2c([C@H]3Oc4cc(O)cc(O)c4C[C@H]3O)cc(O)c(O)c12	0.912	0.856
CN(Cc1cnc2nc(N)nc(N)c2n1)c1ccc(C(=O)N[C@@H](CCC(=O)O)C(=O)O)cc1	0.703 and 0.602 and 0.455	0.581 and 0.379 and 0.359
CCOc1ccc2nc3cc(N)ccc3c(N)c2c1	0.921 and 0.814	0.826 and 0.806
CCN(CC)CCNc1ccc(CO)c2sc3ccccc3c(=O)c12	0.27	0.659
CN(C)c1ccc(O)c2c1C[C@H]1C[C@H]3[C@H](N(C)C)C(O)=C(C(N)=O)C(=O)[C@@]3(O)C(O)=C1C2=O	1.08	1.22
CC(Cc1ccc(O)c(O)c1)(NN)C(=O)O (centres undefined)	1.21	0.964
Cc1ccsc1/C=C/C1=NCCCN1C	0.972 and 0.495	1.04 and 0.879
CCCCCCCCCCCCCCCCOP(=O)([O-])OCC[N+](C)(C)C	0.8	0.989
C[N+](C)(C)CCOC(=O)CCC(=O)OCC[N+](C)(C)C	0.908	0.877
CSc1ccc(OCc2ncc([N+](=O)[O-])n2C)cc1	1.41	1.31
COc1cc(C(C)=O)ccc1O	1.08	1.05
CCN1CCc2nc(N)oc2CC1	0.941	0.924

Compound	PER2::LUC luminescence (time after treatment 24 h)	PER2::LUC luminescence (time after treatment 30 h)
COc1cc(C=CC(=O)O)cc(OC)c1O	0.896	0.883
CC(C)CCCC(C)C1CCC2C3=CCC4CC(O)CCC4(C)C3CCC21C (centres undefined)	0.933	0.934
C=CCn1c(=O)c2c(nc(-c3ccc(S(=O)(=O)O)cc3)n2C)n(C)c1=O	1.01	0.927
C[C@]12CC[C@@H]3c4ccc(OS(=O)(=O)O)cc4CC[C@H]3[C@@H]1CCC2=O	1.04	0.945 and 1.2
Cc1ncc(Cl)cc1NCc1ccc(C(=O)N[C@@H](CC2CCCC2)C(=O)NC2CC2)s1	0.921	0.823
COc1cc2c(CCNC(C)=O)c[nH]c2cc1Cl	0.891	0.993
CCCN(CCc1ccccc1)C1CCc2c(O)cccc2C1 (racemic)	1.02	0.864
COc1cccc(OC)c1C(=O)N[C@@H]1C(=O)N2[C@@H]1SC(C)(C)[C@@H]2C(=O)O	0.867	0.823
Cc1ccc(S(=O)(=O)NC(=O)NN2CCCCCC2)cc1	1.04	1.02
CC(C)(C)CC(C)(C)c1ccc(O)c(Cc2ccc(Cl)cc2Cl)c1	1.03	0.93
CN1CCN(c2c(F)cc3c(=O)c(C(=O)O)cn4c3c2OCN4C)CC1	1.04	1.03
CC1c2ccccc2CN1CC1=NCCN1 (centres undefined)	1.05	1.01
CCN(CC)CCOC(=O)C(c1ccccc1)c1ccccc1	0.791	0.827
OC(CCCN1CCCCC1)(c1ccccc1)c1ccccc1	0.74	0.919
CCCCCCCCCCCCc1ccc(S(=O)(=O)Nc2nncs2)cc1	1.09	0.954
CC(CCc1ccccn1)(CCc1ccccn1)C(=O)c1ccccc1	0.643	0.935
C[C@H]1[C@H](C)CC[C@]2(C(=O)O)CC[C@]3(C)C(=CC[C@@H]4[C@@]5(C)C[C@@H](O)[C@H](O)[C@@](C)(CO)[C@@H]5CC[C@]43C)[C@H]12	1.02	0.996
CC[N+](CC)(CC)CC(=O)Nc1c(C)cccc1C	1.04	0.869
O=c1cc(-c2ccc(O)cc2)oc2c([C@@H]3O[C@H](CO)[C@@H](O)[C@H](O)[C@H]3O)c(O)cc(O)c12	0.934	0.884
CC(C)(N)C(=O)N[C@H](COCc1ccccc1)C(=O)N1CCC2(CC1)CN(S(C)(=O)=O)c1ccccc12	0.936	0.86
CCN(c1cc(C#CCN2CCOCC2)cc(C(=O)NCc2c(C)cc(C)[nH]c2=O)c1C)[C@H]1CC[C@H](N(C)CCOC)CC1	1.05	1.12
COc1cc(-c2ccc(=O)[nH]n2)ccc1OC(F)F	0.97	0.924

Compound	PER2::LUC luminescence (time after treatment 24 h)	PER2::LUC luminescence (time after treatment 30 h)
CC(=O)OC[C@@]1(O)C[C@@]23CC[C@@H]4c5ccoc5C=C[C@@]4(C)[C@@H]2CC[C@@H]1C3	1.02	0.958
CCCCC1(COC(=O)CCC(=O)O)C(=O)N(c2ccccc2)N(c2ccccc2)C1=O	0.826	1.02
COc1cc(NC(C)CCCN)c2ncccc2c1 (centres undefined)	0.857 and 0.712	0.94 and 0.92
CCCCNc1c(C(=O)OCC)c(C)nc2c1cnn2CC	0.905	1.02
CC(=O)CC/C=C(\C)CC/C=C(\C)CC/C=C(\C)CCC=C(C)C	1.1	0.997
OC[C@H]1O[C@@H](n2cnc3c(Nc4ccccc4)ncnc32)[C@H](O)[C@@H]1O	1.41	1.13
COc1ccc(-c2ccc3c(N4CCOCC4)nc(N4C[C@@H](C)O[C@@H](C)C4)nc3n2)cc1CO	0.334	0.522
Nc1ccc(CCNc2ncnc3c2ncn3C2OC(CO)C(O)C2O)cc1 (centres undefined)	0.951	0.857
COC1(C)CCC2OC2(C)CCC2C1CC2(C)C (centres undefined)	1.09	1.12
CC(=O)NCCc1ccc(O)c(-c2c(O)c(O)c3c(c2O)C(=O)c2c(cc(O)c(C(=O)O)c2C(=O)O)C3=O)c1	0.904	0.903
OC(CN1CCN(c2cccc(Cl)c2)CC1)C(c1ccccc1)c1ccccc1 (centres undefined)	0.994 and 0.787	0.901 and 0.845
CN(C)[C@@H]1C(O)=C(C(N)=O)C(=O)[C@@]2(O)C(O)=C3C(=O)c4c(O)cccc4[C@@](C)(O)[C@H]3[C@H](O)[C@@H]12	0.981	0.969
COc1cc(OC)c(/C=C/S(=O)(=O)Cc2ccc(OC)c(NCC(=O)O)c2)c(OC)c1	0.404	0.454
CSc1ccc2c(c1)N(CCC1CCCCN1C)c1ccccc1S2 (centres undefined)	0.715	0.673
CC(C)(Sc1ccc(CCN(CCCCC2CCCCC2)C(=O)NC2CCCCC2)cc1)C(=O)O	0.924	0.717
NC1C=CC=C(C(=O)O)C1 (centres undefined)	1.03	1.11
COc1cc(O)c2c(=O)c(O)c(-c3ccccc3)oc2c1	0.99	1.06
Cl.N=C(N)NCCC[C@H](N)C(=O)O	0.889	0.877
CC/C(=C(/CC)c1ccc(O)cc1)c1ccc(O)cc1	1.01	0.953
CC1=C(/C=C/C(C)=C/C=C/C(C)=C\C(=O)O)C(C)(C)CCC1	1.75 and 1.62 and 1.8	1.89 and 1.79 and 1.52
Nc1nc(OCc2ccccc2)c2nc[nH]c2n1	1.06	0.951
